Assay results: PubChem BioAssay (NCI)
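Briefly, cells in 96-well plates were exposed to five compound concentrations for 48 h, and endpoints were estimated by linear interpolation. Abbreviation: GI50, concentration required for 50% inhibition of growth. TGI denotes the concentration required for complete inhibition of growth.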

Test system: NCI-H322M lung
Test: NCI tumour cell line growth inhibition, 48 h

COc1ccc(C(=O)/C=C/c2ccc(OCC#N)cc2)cc1
TGI: > 100 µM

c1ccc(CC2COC(c3cccs3)=N2)cc1 (stereo not drawn)
TGI: > 100 µM

O=C1NC2CCCCCC2C12CCCCC2 (stereo not drawn)
TGI: > 100 µM

COC(=O)C(Cc1c[nH]c2ccccc12)N=C1Nc2ccncc2S(=O)(=O)N1c1cccc(OC(C)C)c1 (stereo not drawn)
TGI: > 100 µM

O=[N+]([O-])c1ccc(C(O)(C#CCN2CCCC2)c2ccccc2)cc1 (stereo not drawn)
TGI: > 100 µM

COc1cc(-c2nn(-c3cccc(NC(=O)CCN4CCN(Cc5ccccc5)CC4)c3)cc2-c2ccncc2)ccc1Cl
GI50: 2.49 µM
TGI: 14.7 µM

COc1ccc2c(-c3ccnc(Nc4cccc(OC(F)(F)F)c4)n3)cnn2n1
GI50: 3.95 µM
TGI: > 16.7 µM

Cc1cc(C)c(C2CNCc3cc4c(cc32)CNCC4c2c(C)cc(C)cc2C)c(C)c1 (stereo not drawn)
GI50: 4.88 µg/mL
TGI: 16.4 µg/mL

N/C(=N\OC(=O)c1ccccc1)C(Cc1ccccc1)C(=O)NOC(=O)c1ccccc1 (stereo not drawn)
GI50: 13.1 µM
TGI: 88.5 µM

Cc1ccncc1C(N)=O
GI50: > 100 µM
TGI: > 100 µM

CC1=C(CC2C(=O)N(c3ccccc3)S(=O)(=O)NC2C)C(=O)N(c2ccccc2)S(=O)(=O)N1C (stereo not drawn)
TGI: > 100 µM

Cc1ccc(C2C3Cc4ccccc4C3=NN2c2ccc(S(=O)(=O)/N=c3\scc(-c4ccccc4)n3-c3ccccc3)cc2)cc1 (stereo not drawn)
GI50: 28 µM
TGI: 93.2 µM

O=Nc1c(-c2c(O)[nH]c3ncccc23)[nH]c2ccccc12
GI50: 2.94 µM
TGI: > 100 µM

Oc1c(-c2cc(C(F)(F)F)[nH]n2)cc(Cl)c(OCc2ccc(Cl)cc2)c1-c1ccc(Cl)c(C(F)(F)F)c1
GI50: 0.564 µM
TGI: 5.55 µM

O=C(O)c1ccccc1NC(=S)c1ccccc1
TGI: > 100 µM

CCN(CC)C1Oc2cc3c(cc2C(c2cccc(OC)c2OC)C1C)OCO3 (stereo not drawn)
TGI: 64.4 µM

O=C(Cc1nc2ccccc2o1)C(=O)Nc1cccc(C(F)(F)F)c1
TGI: > 100 µM

COc1cc2c3c([nH]c2c(OC)c1OC)CCN(Cc1ccccc1)C3
TGI: > 100 µM

CC(=O)O[C@@H]1C[C@@]2(C)[C@@H]3CC=C4[C@@H](C[C@H](O)C(=O)C4(C)C)[C@]3(C)C(=O)C[C@]2(C)[C@H]1[C@@](C)(O)C(=O)/C=C/C(C)(C)OC(C)=O
TGI: > 100 µM

C=CCc1cc(Nc2c3ccc(Cl)cc3nc3ccc(OC)cc23)cc(CN(CC)CC)c1O
GI50: 3.54 µM
TGI: 15.1 µM

O=c1[nH]c2nc3ccccc3c(=O)n2/c1=C/c1ccco1
TGI: > 100 µM

COC(=O)C1CCC(=O)N1C(c1ccc2c(c1)OCO2)c1cc(OC)c(OC)c(OC)c1 (stereo not drawn)
TGI: > 100 µM

O=C(O)c1ccccc1N=Nc1c(O)c(S(=O)(=O)O)cc2cc(S(=O)(=O)O)ccc12
TGI: > 100 µM

CCCCNc1nc(NC2OCC(OC(C)=O)C(OC(C)=O)C2OC(C)=O)c(N=O)c(=O)n1C (stereo not drawn)
TGI: > 10 µM

FC(F)(F)c1cccc(-c2nn3ncccc3c2-c2ccnc(Nc3ccc4c(c3)OCCO4)n2)c1
GI50: > 25 µM
TGI: > 25 µM

c1ccc(N=C2c3ccsc3C(=Nc3ccccc3)c3ccsc32)cc1
TGI: 6.22 µM

CN(C)CCNC(=O)c1cccc2c(NC(CCC(N)=O)C(=O)O)c3ccccc3nc12 (stereo not drawn)
TGI: > 100 µM

Fc1ccc(/C=N/n2c(-c3ccc(F)c(Cl)c3)n[nH]c2=S)cc1
GI50: 20.8 µM
TGI: 43.2 µM

COC(=O)C(=O)Cc1nc2ccccc2o1
TGI: > 100 µM

COc1cccc(C(=O)C#Cc2cnc(OC)nc2OC)c1
TGI: 33.1 µM

COc1cc(C(=O)Nc2cc(O)c(CC=C(C)C)c(O)c2)cc2c1O[C@]1(C)CC[C@@H](O)C(C)(C)[C@H]1C2
GI50: 5.61 µM
TGI: 38.6 µM

CCCCCCCCCCCC[N+](CCCCCCCCCCCC)=C1SCCS1
TGI: 31 µM

CSc1c(C#N)c(N)n(-c2ccc(Cl)cc2)c(=O)c1C#N
TGI: > 100 µM

C=C1[C@@H](O)O[C@H]2[C@H]1C[C@H](OC(C)=O)[C@]13C(=O)O[C@H]4C[C@](C)(O)[C@H]([C@H]41)C31C=C(C)[C@]2(O)O1
GI50: > 100 µM
TGI: > 100 µM

CSc1ccc(C2=NN(C(C)=O)C(c3ccc(-c4ccc(Cl)cc4)o3)C2)cc1 (stereo not drawn)
GI50: 21.9 µM
TGI: 94.6 µM

COc1cc2ncc3c(nc4sccn43)c2cc1OC
GI50: 13.8 µM
TGI: 41 µM

COc1ccc2c3c1O[C@H](c1ccc(O)cc1)[C@H]3[N+](C)(C)CC2
TGI: > 100 µM

CCC1C(c2ccccc2O)c2cc3c(cc2OC1N1CCOCC1)OCO3 (stereo not drawn)
TGI: 29.7 µM

CCOC(=O)C1CCCCN1C(=O)Cc1c[nH]c2ccccc12 (stereo not drawn)
TGI: > 100 µM

CCCn1c(=O)c(N2CCN(c3ccccc3)CC2)nc2sc3ccccc3c21
TGI: > 100 µM

Clc1ccc(C2ON=C(c3ccccc3)N2C23CC4CC(CC(C4)C2)C3)cc1 (stereo not drawn)
TGI: > 10 µM

Cc1cc(=O)c2c(O)cc3c(c2o1)CC=C(COC1OC(COC2OC(CO)C(O)C(O)C2O)C(O)C(O)C1O)CO3 (stereo not drawn)
TGI: > 100 µM

N#CNc1nc(N)c(-c2ccc(Cl)cc2)c(C(=O)Nc2nccs2)n1
TGI: > 100 µM

O=C(Nc1ccccc1OC(=O)c1ccccc1)c1ccccc1
GI50: 22.4 µM
TGI: > 100 µM

O=NN(CCF)C(=O)NC1CCSCC1
TGI: > 100 µM

CC(C)C[C@H](NC(=O)CCn1ccc2ccccc2c1=O)B(O)O
GI50: 76.8 µM
TGI: > 100 µM

COc1ccc(Nc2ccnc(N3CCN(c4ccnc5cc(Cl)ccc45)CC3)n2)cc1
GI50: 2.46 µM
TGI: > 44.4 µM

COc1cccc(/N=N/C(=NNC(=O)c2ccc(C)cc2)c2ccc(N(C)C)cc2)c1
TGI: > 100 µM

C=CCOc1ccc(C2C(C(=O)OC)C(=O)CC(O)(c3ccccc3)C2C(=O)OC)cc1OC (stereo not drawn)
TGI: 88.8 µM

CCC(=O)Nc1ccc(N2C(=O)/C(=C/c3ccc(OC)cc3)N=C2c2ccccc2)cc1
GI50: 14.7 µM
TGI: > 50 µM

CN1CCN(P2(=S)Oc3ccc4ccccc4c3-c3c(ccc4ccccc34)O2)CC1
TGI: > 100 µM

CC1CC(C#N)=C2NCCN2C1=O (stereo not drawn)
TGI: > 100 µM

O=C1c2c(Br)sc(Br)c2[C@@H](NC(=O)C(F)(F)F)C1Br (stereo partly drawn)
TGI: 15.3 µM

CC[C@@]1(O)C(=O)OCc2c1cc1n(c2=O)Cc2c-1nc1ccccc1c2/C=N\NC(=O)C(N)CCSC (stereo partly drawn)
TGI: > 43.4 µM

Cc1[nH]c(-c2cc(N)ccc2Cl)c2c1C(=O)CCCC2
GI50: 2.95 µM
TGI: > 100 µM

COC(=O)c1cc(-c2ccc(OC)c(OC)c2)[nH]c1N/N=C/c1c(Cl)cccc1Cl
GI50: 3.09 µM
TGI: > 75.2 µM

O=C(CN1N=C(c2ccc(F)cc2)CCC1=O)Nc1nc2ccccc2s1
GI50: > 100 µM
TGI: > 100 µM

CCOC(=O)C1Nc2ccccc2[C@H]2OCC[C@@H]12 (stereo partly drawn)
TGI: > 100 µM

COc1cccc(Oc2ccccc2NC(=O)CNC(=O)c2cccc3ccccc23)c1
GI50: 1.27 µM
TGI: > 25 µM

COC(=O)Cc1c(-c2c(CC(=O)OC)c3ccccc3n2C2OC(COC(C)=O)C(OC(C)=O)C(OC(C)=O)C2OC(C)=O)[nH]c2ccccc12 (stereo not drawn)
TGI: > 100 µM

C[C@@H]1Cc2cc(O)ccc2[C@H]2CC[C@]3(C)/C(=C/COCCN(C)C)CC[C@H]3[C@H]12 (tested in a mixture with another compound)
GI50: 0.322 µM
TGI: 0.937 µM

O=C(O)c1cc(CCc2cc(O)ccc2O)ccc1O
TGI: > 100 µM

C=C(C)[C@@H]1CC[C@]2(C(=O)OC)CC[C@]3(C)[C@H](CC[C@@H]4[C@@]5(C)CC[C@H](O)C(C)(C)[C@@H]5CC[C@]43C)[C@@H]12
TGI: 35.2 µM

OC(c1cccnc1Cl)c1nc2ccccc2c2ccnc(Cl)c12 (stereo not drawn)
TGI: > 100 µM

Cc1[nH]nc(-c2ccon2)c1N=O
TGI: > 100 µM

O=C(c1ccccc1)c1c(CC(O)c2ccncc2)n(C(=O)c2ccccc2)c2ccccc12 (stereo not drawn)
TGI: > 100 µM

COc1cc(Nc2nc3cc(C(F)(F)F)ccc3n3cccc23)cc(OC)c1OC
TGI: > 100 µM

O=c1c2cc(F)ccc2sc2c(NCCCNCCO)nc3ccccc3c12
GI50: 1.63 µM
TGI: 3.05 µM
